From paper PMC4242493
The list shows a part of the results. The list includes weakly bound sequences.

target: MaxL homodimer (UniProt P61244); assay: universal protein-binding microarray (PBM); conditions: PBS-based mixture, 10 nM His-tagged protein dimer, 2% milk, 200 ng/uL BSA, 50 ng/uL salmon testes DNA, 0.02% TX-100; detection with Alexa 488 anti-His …; high values mean tight binding; most listed sequences are background and not binding sites; double strand, one strand shown
Sequence of UniProt P61244 (P61244 whole entry): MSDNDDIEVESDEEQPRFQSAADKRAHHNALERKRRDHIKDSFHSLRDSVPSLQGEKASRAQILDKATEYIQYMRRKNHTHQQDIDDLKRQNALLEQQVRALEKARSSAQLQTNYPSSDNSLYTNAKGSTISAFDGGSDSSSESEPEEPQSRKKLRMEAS

Sequence	binding signal (normalized occupancy)
ACTGCTGC	0.0746
TTGCGCAA	0.0725
AGTAAGAC	0.0757
ACTTATCC	0.0734
GAGTCAGC	0.0763
CCCTGGAG	0.0719
ACCACGGT	0.0803
CGCCGCAC	0.08
ATGGTCTC	0.0821
CCGAACAG	0.0708
AAGGCCAG	0.0689
CCGCTTTA	0.0715
TGTTGGAA	0.0753
CCTTGTCG	0.072
AATCAAGC	0.0756
GTCGGTAA	0.0762
CGGGCCCG	0.0669
CGATAAGC	0.0729
AGAAAACT	0.0714
GCCCAGGC	0.0722
CACGAATG	0.0777
GGGTTTCA	0.0775

Sequence	binding signal (normalized occupancy)
AGATCGAC	0.0718
GAAGGGCA	0.0743
GCTACGAA	0.0732
ATTCAACG	0.0823
GCACGAGC	0.085
AAGCTATA	0.0711
TAATAGGA	0.0767
AACTTGCG	0.0656
TACAACAA	0.0837
TGATCGAA	0.0768
GGGGTTTA	0.0804
AGGGCTCA	0.0703
CCTTCAGC	0.0703
AGAGTGGC	0.0745
AAGAAGCT	0.0698
GCCCTTCC	0.0737
CACGCCAA	0.0823
AAAGATTT	0.0708
AGCAGGAA	0.0771
ACGGGTTC	0.0763
CAATAGCG	0.0758
ACTGTCAA	0.0789

Sequence	binding signal (normalized occupancy)
ATAGCTCG	0.0703
ATCAATTC	0.0749
AGAGAGCA	0.0733
GATGGCCC	0.0719
AAAAAGCA	0.078
AAGCGCAC	0.0757
AAACTGGA	0.0722
CTAAAAAG	0.0655
TCATGTAA	0.0936
GCTCGTAA	0.0766
AGAATGAA	0.0781
AGAAATAC	0.0735
GAGGGTGA	0.0727
GAGGGCGA	0.0741
TCTATGCA	0.0808
ATGATGGA	0.0861
ACGTCTGA	0.0724
AGCAGAAT	0.0719
TCCTAGGA	0.0742
AGGGCTTC	0.0709
ACAATCCG	0.0747
CTGGATGA	0.0778

Sequence	binding signal (normalized occupancy)
CTGCCTGC	0.0727
ATAAGTGC	0.0785
CGGCGTCA	0.0685
CTGCGTAC	0.0715
GACACCCA	0.0749
CGTCATAA	0.0764
CACTCCAC	0.0873
CCGTCTAG	0.0677
CCGTACAA	0.0762
AAGTCACT	0.074
CTTAGGGA	0.0706
ACACAACG	0.0831
GAGCTAGA	0.0757
CAATCCAA	0.0699
CCCATGGC	0.0849
GACTATAC	0.0845
CATGTGGG	0.144
GACTAAAA	0.0672
ATGGGCGG	0.0801
GACGCCTA	0.0708
ATACGCAC	0.0799
ACTCTTCT	0.0779

Sequence	binding signal (normalized occupancy)
ATACAACA	0.0788
GCTGGCCA	0.0708
GAACACCA	0.0748
CGCCTCCA	0.0754
AGAGGTAT	0.0785
CAGGGCAG	0.0697
ATGTAGAC	0.0794
CCATCTCC	0.0767
CAATTGAA	0.0762
GCGCATAA	0.0782
AACACATT	0.0903
AGGATATC	0.0817
ATCCGAAA	0.0737
AACTGGAA	0.0737
AAGCTGGA	0.0707
AAGAGGTC	0.0695
ACTGAGCG	0.0729
ACCGCAGC	0.0715
AGTTGTAG	0.0721
ACCCAGAT	0.075
GCCCCCCC	0.0757
